The whole screen tested about 360,000 compounds, of which about 11,000 (3.1%) were called active. The shares of active, inactive and inconclusive entries below differ from those in the screen. The call rests on the fitted dose curve; in most records, active means well fitted inhibition curve with a large enough effect; inconclusive means small, poorly fitted or top-dose-only effect; inactive means no such curve, though single readings can be large or run the other way. Potencies of inconclusive entries are left out as doubtful fits.
The molecules below were run against Schistosoma mansoni thioredoxin glutathione reductase (TGR) (UniProt Q962Y6) (assay: qHTS Assay for the Inhibitors of Schistosoma Mansoni Peroxiredoxins). Details: purified TGR, DTNB reduction, TNB absorbance 405 nm; activity change, negative = inhibition: at 114 µM (top of the series) unless noted.
In short: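 First, TGR (20 nM dispensed) and NADPH were mixed with compound. Second, a 15 min room-temperature incubation followed. Third, further NADPH and then DTNB were added to start the reaction. Finally, TNB absorbance was monitored kinetically.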
`Cc1sc(-n2c(C)cc(C=C3C(=O)NC(=O)NC3=O)c2C)c(C#N)c1C` was tested, and the Potency was inconclusive [inhibitor, full curve]. With `COC(=O)CCCC[C@H]1SC[C@H]2NC(=O)N[C@]21O` the Potency was inconclusive [inhibitor, partial curve]. In the case of `Cc1ccc(S(=O)(=O)C(CNC(=O)C(=O)NCCc2ccccc2)c2cccs2)cc1` (stereo unspecified), the Potency was inconclusive [inhibitor, partial curve]. With `COC(=O)[C@H](C)NC(=O)Nc1cc(OC)ccc1OC` the Potency was inconclusive [inhibitor, partial curve]. `O=c1ccc2cc3c4c(c2o1)CCCN4CCC3` was tested, and the Potency was active: 50.1 µM. `COc1ccc(/C=N/NC(C)(C)C)c(OC)c1` was tested, and the Potency was inconclusive [inhibitor, partial curve]. `O=C(CSc1nc2ccccc2s1)Nc1ncccn1` was tested, and the “activity change, negative = inhibition” value was inactive: 6.19%. `COc1cc(CCC(=O)N2CC(C)OC(C)C2)cc(OC)c1OC` (stereo unspecified) was tested, and the “activity change, negative = inhibition” value was inactive: -0.097%. With `CCN=c1scc(C)n1/N=C/c1cc(Br)c(O)c(OC)c1` the Potency was inconclusive [inhibitor, partial curve]. `COc1ccc(C)cc1NC(=O)c1ccc(-c2ccc(C(C)=O)cc2)o1` was tested, and the Potency was inconclusive [inhibitor, partial curve]. In the case of `CN(C)S(=O)(=O)Oc1ccsc1C(=O)Nc1cccc(Cl)c1Cl`, the “activity change, negative = inhibition” value was inactive: -3.37%. In the case of `COc1ccc(CNC(=O)COC(=O)CCn2c(C)csc2=O)cc1OC`, the “activity change, negative = inhibition” value was inactive: -24%. `c1ccc(C2Oc3ccccc3C3CC(c4cccs4)=NN32)cc1` (stereo unspecified) was tested, and the Potency was inconclusive [inhibitor, partial curve]. In the case of `O=C(O)c1ccc(CSc2nnc(-c3ccco3)n2-c2ccccc2)cc1`, the Potency was inconclusive [inhibitor, partial curve, poor fit]. For `CCCCCCCN(C(=O)CCl)c1cccc(C)c1`, the Potency was inconclusive [inhibitor, partial curve]. In the case of `COc1ccccc1C(=O)OCC(=O)NC1CCCC1`, the “activity change, negative = inhibition” value was inactive: 37.4%. `CCCOc1ccc(N2C(=O)CC(N3CCN(c4nc5ccccc5s4)CC3)C2=O)cc1` (stereo unspecified) was tested, and the Potency was active: 39.8 µM. `S=C(Nc1ccc(Cl)cc1)NN1CCOCC1` was tested, and the Potency was inconclusive [inhibitor, partial curve]. In the case of `S=c1[nH]nc(NCCCN2CCOCC2)s1`, the Potency was inconclusive [inhibitor, single point]. With `C/C(=C\c1ccco1)C1Nc2cccc3cccc(c23)N1` the Potency was active: 3.55 µM. For `C(=C\c1ccco1)/c1nc2ccccc2[nH]1`, the Potency was active: 3.16 µM. In the case of `Cc1ccc(-c2ccc(/C=C3\C(=O)ON=C3c3ccccc3)o2)c([N+](=O)[O-])c1`, the Potency was inconclusive [inhibitor, full curve]. With `Cc1nc(C)c(-c2csc(Nc3ccccn3)n2)s1` the Potency was inconclusive [inhibitor, single point]. `COc1ccc(C(C)=O)cc1COC(=O)CSC(C)C(=O)Nc1cc(C)on1` (stereo unspecified) was tested, and the Potency was inconclusive [inhibitor, partial curve]. `COc1ccc(-c2nc3n(n2)C(c2ccc(OC)c(OC)c2)C(C(=O)Nc2cccnc2)=C(C)N3)cc1` (stereo unspecified) was tested, and the Potency was inconclusive [inhibitor, single point]. For `COc1ccc(Cl)cc1NC(=O)c1c(NCc2cccnc2)sc2c1CCC(C)C2` (stereo unspecified), the Potency was inconclusive [inhibitor, full curve]. In the case of `C#C[C@]1(O)CC[C@H]2[C@@H]3CCC4=Cc5nc6nc7ccccc7n6cc5C[C@]4(C)[C@H]3CC[C@@]21C`, the Potency was inconclusive [inhibitor, partial curve]. `Cc1ccc(Cl)cc1N1CCN(S(=O)(=O)c2ccc3c(c2)NC(=O)C(C)C(=O)N3)CC1` (stereo unspecified) was tested, and the Potency was active: 79.4 µM. With `CCCC1NC(C(=O)O)Cc2c1[nH]c1ccccc21` (stereo unspecified) the Potency was active: 44.7 µM. `COc1ccc(NC(=O)/C=C/c2ccc(Br)o2)cn1` was tested, and the Potency was active: 11.2 µM. With `CCCC(=O)NC(=S)Nc1ccc(N2CCN(C(=O)c3cccs3)CC2)cc1` the Potency was inconclusive [inhibitor, partial curve]. With `C=CCNc1nc(Cl)nc(Nc2ccc(OC)cc2OC)n1` the Potency was inconclusive [inhibitor, full curve]. With `O=C1CC(c2ccccc2)CC(=O)C1=CN1CCCC1` (stereo unspecified) the Potency was inconclusive [inhibitor, partial curve]. In the case of `CCc1cc(C(c2ccccc2OC)N2CCOCC2)c(NC(=O)c2ccccc2)s1` (stereo unspecified), the Potency was active: 20 µM. In the case of `CCCCn1c(=O)[nH]c(=O)c2c1nc(-c1ccc(C(F)(F)F)cc1)n2C`, the “activity change, negative = inhibition” value was inactive: 14.8%. `CC1(C)Cc2c(C#N)c(OCC(=O)c3ccc(Cl)cc3)nc(-c3ccco3)c2CO1` was tested, and the Potency was inconclusive [inhibitor, partial curve]. In the case of `CSc1ncc(CN2CCc3c([nH]c4ccccc34)C2c2cccc(C)n2)cn1` (stereo unspecified), the Potency was inconclusive [inhibitor, full curve, poor fit]. In the case of `CC(=O)C1=C(c2ccccc2)NC(=O)NC1c1ccc(O)c(O)c1` (stereo unspecified), the Potency was active: 15.8 µM. With `COc1ccc(CCn2c(C)ccc2C)cc1OC` the Potency was inconclusive [inhibitor, partial curve]. In the case of `CCc1ccccc1NC(=O)CN1CCN(C(=O)CN2C(=O)NC3(CCCCC3C)C2=O)CC1` (stereo unspecified), the Potency was inconclusive [inhibitor, partial curve]. For `CCOC(=O)C1=C(CNCc2ccccc2Cl)NC(=O)NC1c1cccc([N+](=O)[O-])c1` (stereo unspecified), the “activity change, negative = inhibition” value was inactive: 1.26%. With `O=C(NCC(c1ccco1)N1CCCC1)c1cc2cc(Cl)ccc2o1` (stereo unspecified) the “activity change, negative = inhibition” value was inactive: -22.3%. `CN1CCN(CC(=O)N2c3ccccc3C(C)(c3ccc(Cl)cc3)CC2(C)C)CC1` (stereo unspecified) was tested, and the “activity change, negative = inhibition” value was inactive: -1.64%. In the case of `Cc1cc(N2C(=O)C(O)=C(C(=O)c3cc4ccccc4o3)C2c2cccc(Cl)c2)no1` (stereo unspecified), the Potency was inconclusive [inhibitor, single point]. In the case of `NC(=O)COC(=O)c1cc(-c2ccco2)nc2ccccc12`, the Potency was active: 3.16 µM. `Cc1nnc(SCCn2c(N(C)Cc3ccccc3)nc3c2c(=O)[nH]c(=O)n3C)s1` was tested, and the “activity change, negative = inhibition” value was inactive: -4.4%. In the case of `Cc1cc(SCC(=O)Nc2c(C)n(C)n(-c3ccccc3)c2=O)nc2ccccc12`, the Potency was inconclusive [inhibitor, partial curve, poor fit]. `O=C(CSc1ccc(-c2ccco2)nn1)NC1CCCCC1` was tested, and the Potency was active: 8.91 µM. For `CCC(CC)C1C(C#N)=C(N)SC(N)=C1C#N`, the Potency was inconclusive [inhibitor, partial curve, poor fit]. For `Oc1ccc(C2C(c3ccccc3)=NN=C(c3ccc(Cl)cc3)N2O)c(O)c1` (stereo unspecified), the Potency was inconclusive [inhibitor, partial curve]. With `CCN=c1scc(-c2ccco2)n1/N=C/c1ccc(OC)c(O)c1` the Potency was inconclusive [inhibitor, single point]. `Cc1cc2c(n1-c1ccc(C(=O)NCc3ccccc3Cl)cc1)CCCC2` was tested, and the Potency was inconclusive [inhibitor, partial curve]. In the case of `CC1(C)CC2CC(C)(CN2S(=O)(=O)c2cccc(C(=O)OCC(=O)NC(N)=O)c2)C1` (stereo unspecified), the Potency was active: 15.8 µM. For `CN(CCC1CCOCC1)C(=O)CC1C(=O)NCCN1Cc1ccoc1` (stereo unspecified), the Potency was inconclusive [inhibitor, partial curve]. With `Cc1nnnn1/C(=C\c1ccccc1)C(=O)OCC(=O)Nc1cccc(S(=O)(=O)N(C)C)c1` the Potency was inconclusive [inhibitor, full curve]. With `O=c1c(NCc2cccs2)nccn1-c1ccc(F)cc1` the Potency was inconclusive [inhibitor, full curve, poor fit]. With `Cc1oc(-c2ccc(Cl)cc2)nc1CS(=O)CC(=O)NCc1ccco1` (stereo unspecified) the Potency was inconclusive [inhibitor, partial curve]. For `COC(=O)c1c(C)oc(C)c1S(=O)(=O)N(Cc1ccccc1)C(C)C`, the Potency was active: 31.6 µM. `C#CCNC(=O)C1CCN(c2ccc(S(=O)(=O)N3CCOCC3)cc2Cl)CC1` was tested, and the Potency was inconclusive [inhibitor, partial curve]. In the case of `CC(C)c1cc(C(=O)OCC(=O)N2CCN(C(=O)c3ccco3)CC2)c(O)c(C(C)C)c1`, the Potency was inconclusive [inhibitor, partial curve]. With `Cc1nc(C/C(=N\Nc2ccccc2)c2ccc(O)cc2O)cs1` the Potency was inconclusive [inhibitor, partial curve]. In the case of `COc1cc(/C=C/C(=O)OCC(=O)N2CCN(C(=O)c3ccco3)CC2)ccc1O`, the Potency was inconclusive [inhibitor, partial curve]. `CC(=O)c1ccc(NC(=O)NC2CCCc3ccccc32)cc1` (stereo unspecified) was tested, and the “activity change, negative = inhibition” value was inactive: 3.14%. For `COc1ccc(C2=NN(C(=O)CSc3nc4ncc(Cl)cc4[nH]3)C(c3ccco3)C2)cc1` (stereo unspecified), the Potency was active: 28.2 µM. In the case of `O=C(NCc1ccco1)c1cccc(S(=O)(=O)N2CCCCC2)c1`, the Potency was active: 25.1 µM. For `COC(=O)c1ccccc1NC(=S)NC(=O)C1CCCCC1`, the Potency was inconclusive [inhibitor, partial curve]. `Cc1cc(F)c(F)c(C(=O)N2CCOCC2)c1` was tested, and the Potency was inconclusive [inhibitor, single point]. With `O=C(NC1CCCCCC1)c1ccc(CS(=O)Cc2cccc(Cl)c2)o1` (stereo unspecified) the Potency was active: 56.2 µM. In the case of `C=CCOC(=O)C1=C(C)NC(=O)NC1c1ccc2c(c1)OCO2` (stereo unspecified), the Potency was inconclusive [inhibitor, single point]. `O=C(NC(=S)NC1CCCc2ccccc21)c1ccc(F)cc1` (stereo unspecified) was tested, and the Potency was active: 17.8 µM. In the case of `Cc1cccc(CN(CC(=O)N/N=C/c2ccco2)S(=O)(=O)c2ccc(Cl)cc2)c1`, the Potency was inconclusive [inhibitor, partial curve].
Further: nearly all actives have a fitted effect of over 60% in size.
On the % scale 0 is the no-effect control and ±100 the full control effect; potency means the concentration at half of the fitted maximal effect; tags describe the fitted curve by direction and shape.
